Results: PMC12102759

B1: BCAR1 peptide 627-642 (Breast cancer anti-estrogen resistance protein 1), 16-mer library wild type / YES SH3 (YES1 SH3 domain, residues 90-152) (parent)
chain 1: DKTSSIQSRPLPSPPK
chain 2: TGGVTIFVALYDYEARTTEDLSFKKGERFQIINNTEGDWWEARSIATGKNGYIPSNYVAPADS
B2: CBL peptide 538-553 (E3 ubiquitin-protein ligase CBL), 16-mer library wild type / YES SH3 (YES1 SH3 domain, residues 90-152) (parent)
chain 1: TLRDLPPPPPPDRPYS
chain 2: B1 chain 2

Variants of: B1
Experiment: proteomic peptide phage display deep mutational scan (ProP-PD DMS): M13 P8 16-mer library selected against immobilised GST-tagged bait for four days (rounds), NGS of the eluted pools per day and pseudo-replica
Settings: with YES SH3 (YES1 SH3 domain, residues 90-152); bait immobilised on MaxiSorp plates (10 µg), library pre-cleared on GST, 2 h binding at 4 °C, five washes; one round per day, days 1-4; value from days 2 and 3; keep out of graded; scale: average fractional NGS count over selection days 2 and 3

Screen value, by site and new letter:
chain 1 S8: L 0.000598 | T 0.00252 | H 0.00267 | G 0.000536 | D 2.65e-05 | Y 0 | E 0.00106 | I 0 | A 0.000955 | Q 0.000529 | W 3.9e-05 | V 0.00011 | P 3.66e-05 | M 0.000166
chain 1 Q7: F 8.91e-05 | M 0.00032 | N 0.00037 | A 0.000141 | G 2.49e-05 | E 5.02e-05 | R 0 | Y 0 | H 3.04e-05 | S 5.25e-05 | V 0.000181 | D 0.000285 | P 0.000179 | K 8.33e-05 | L 0.000603 | I 8.26e-05 | T 0.000294 | W 0.000164
chain 1 P10: E 0.00139 | L 0.000113 | M 9.54e-05 | Y 0.00167 | H 0.000338 | D 0.000127 | A 7.34e-05 | S 0.000423 | N 0.000608 | T 0.00136 | W 7.38e-05 | F 1.11e-05 | Q 0.000156 | G 0.000167 | R 4.16e-05 | I 0.000192 | V 0.000766 | K 0.000173
chain 1 K2: H 0.000112 | N 0.000395 | R 0.000443 | A 0.000246 | L 0.000107 | Q 0 | P 0.00285 | S 0.000197 | I 0 | W 0.000884 | D 0.00115 | G 0.000637 | Y 6.55e-05 | M 0.00208 | V 0.000276 | F 2.91e-05
chain 1 T3: A 0.000673 | N 0.000164 | L 0.000697 | W 0.000148 | Q 0.000123 | R 0 | G 0.000642 | Y 0 | P 0.000477 | M 7.42e-05 | F 2.69e-05 | H 0.000245 | I 0 | V 0.000108 | D 0.000304 | E 0.000411 | K 2.45e-05
chain 1 R9: S 0.000624 | I 0.000887 | Y 2.2e-05 | V 0.00123 | H 0.00169 | L 0.000193 | W 8.04e-05 | Q 2.09e-05 | M 0.000769 | N 0.000169 | K 0 | D 1.05e-05 | E 9.37e-05 | G 1.28e-05 | T 0.000495 | A 0.0003
chain 1 P15: F 0.000215 | Y 0.00111 | G 0.000213 | T 0.000142 | A 0.00104 | D 9.59e-05 | V 0.000431 | L 0.000856 | H 9.73e-05 | E 0 | R 0.000562 | S 0.000123 | W 0.000725 | N 0 | Q 2.17e-05 | I 0.000186 | M 0.000379
chain 1 P14: Y 5.98e-05 | T 6.67e-05 | K 3.48e-05 | I 0.000174 | F 0.000238 | D 0.000125 | G 4.18e-05 | Q 0.000368 | L 0.000953 | R 3.2e-05 | M 0.00105 | A 0.000719 | S 0.000485 | W 0.000315 | V 4.27e-05 | H 0.00219
chain 1 L11: M 0.000292 | Y 0 | A 0 | I 0.000151 | V 2.1e-05 | T 1.47e-05 | R 0 | Q 0
chain 1 S4: R 4.43e-05 | E 0.000568 | Q 4.46e-05 | F 5.12e-05 | N 5.72e-05 | A 0.00993 | I 0.00137 | V 0.000316 | G 0.00308 | L 0.00047 | Y 3.94e-05 | W 0.000108 | K 3.27e-05 | H 3.83e-05 | D 0.000464 | M 0.000501 | P 9.18e-05
chain 1 P12: N 0 | A 0 | E 8.57e-06 | V 0 | F 0 | Q 0

Variants of: B2
Experiment: as above
Settings: with YES SH3 (YES1 SH3 domain, residues 90-152); bait immobilised on MaxiSorp plates (10 µg), library pre-cleared on GST, 2 h binding at 4 °C, five washes; one round per day, days 1-4; value from days 2 and 3; keep out of graded; scale: average fractional NGS count over selection days 2 and 3

Screen value of substitutions, site by site:
chain 1 D12: F 5.86e-05
chain 1 D4: W 4.74e-05 | G 2.72e-05 | E 8.57e-06
